# Reference: PubChem BioAssay AID624418 (National Center for Advancing Translational Sciences (NCATS), 2012)
# Hit rate of the full screen: of about 410,000 compounds, about 530 (0.13%) were called active. The shares of active, inactive and inconclusive entries below differ from those in the screen. The call rests on the fitted dose curve; in most records, active means well fitted inhibition curve with a large enough effect; inconclusive means small, poorly fitted or top-dose-only effect, or another doubt; inactive means no such curve, though single readings can be large or run the other way. Where the call is inconclusive, the potency comes from a doubtful curve fit.
# Test: qHTS of GLP-1 Receptor Inverse Agonists: Cytotox Screen
# Settings: HEK293 cAMP-luciferase reporter cells, luminescence, 24 h; series mostly up to 38.3 µM
# Text: The overall goal of this project was to develop a novel assay for discovering small molecule ligands for class B1 G protein-coupled receptors (GPCRs). Very few agonists (or inverse agonists) with generally weak activity for this entire group of physiologically important receptors are known to date. To establish proof-of-principle that this critical bottleneck can be overcome with a suitable screening approach, our studies focused on the class B1 receptor for glucagon-like peptide-1 (GLP-1R), a potential therapeutic target for diabetes and neurodegenerative disease.
# The assay was developed using a cell-based functional readout. Toward this goal, stably transfected HEK293 cell clones were established that co-express (i) a cAMP-responsive luciferase reporter gene, and (ii) constitutively active GLP-1R that upon ligand interaction inhibit (inverse agonists) the luciferase activity. […]
# Six ul of cell suspension (200 cells/uL in DMEM + 10% Nu serum + 1% pen-strep) is dispensed in a white solid 1536-well plate. […] A luminescence read is obtained on the PerkinElmer Viewlux after 12 min incubation at room temperature.
# Potency means the concentration at half of the fitted maximal effect.
row,SMILES,Potency
1,O=C(NN1C(=O)/C(=C/c2ccc(O)cc2)SC1=S)c1ccccc1O,"inconclusive: 31.6 µM [inhibitor, single point]"
